Assay results as given in the supplement of paper PMC4166925.
± gives the standard deviation of the averaged measurements. In all, about 33,000 sequences were measured (“E-score (dimensionless, -0.5 to 0.5)”: median about -0.049, highest 2% from about 0.37 on). The list shows a part of the results.

Test system: T1, PmTbr T-box DNA-binding domain (GST fusion)
T1 sequence: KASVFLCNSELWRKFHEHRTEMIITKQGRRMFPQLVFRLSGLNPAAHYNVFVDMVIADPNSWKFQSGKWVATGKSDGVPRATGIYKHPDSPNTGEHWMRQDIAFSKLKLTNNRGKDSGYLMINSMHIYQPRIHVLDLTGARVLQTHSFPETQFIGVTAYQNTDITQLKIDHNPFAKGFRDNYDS
Assay: PBM E-score of 8-mer (E-score (dimensionless, -0.5 to 0.5)); Tbr is Tbrain of the sea star Patiria miniata (Pm) or the sea urchin Strongylocentrotus purpuratus (Sp); higher = stronger binding preference; most listed sequences are background and not binding sites
Conditions: the construct has about 5 more residues each side
Procedure: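 Universal protein-binding microarray (Agilent AMADID 016060, 60-bp probes with a 35-bp variable region) incubated with 200 nM GST-fused Patiria miniata Tbr T-box DNA-binding domain (residues 272-466) in PBS pH 7.5. Scored for every ungapped 8-mer (given with its reverse complement) by the Universal PBM Analysis Suite as E-score (modified Wilcoxon-Mann-Whitney enrichment, range -0.5 to 0.5; >0.45 counts as bound) and Z-score of median probe intensity. Two replicate arrays (datasets 1 and 2).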
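Further: 200 nM protein in PBS on universal arrays averaged over duplicate arrays.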

| Sequence | PBM E-score of 8-mer |
| --- | --- |
| ACGGCGCC | 0.0734 ± 0.073 |
| GGATTGTA | -0.0921 ± 0.048 |
| ACCTACGT | 0.00861 ± 0.0073 |
| CAACCCTG | -0.0356 ± 0.041 |
| CTACGAAG | -0.0726 ± 0.057 |
| GGGACTTA | -0.217 ± 0.062 |
| GCGCATGA | -0.022 ± 0.008 |
| CATGCACA | -0.038 ± 0.018 |
| ATCGCACA | 0.3241 ± 0.00047 |
| ACATTAAA | -0.18 ± 0.025 |
| CCTGTATA | -0.00183 ± 0.082 |
| CGTACTCC | -0.0693 ± 0.078 |
| CCTATTTC | -0.128 ± 0.053 |
| ACCCTATC | 0.135 ± 0.043 |
| TCTGAGCA | -0.23 ± 0.016 |
| GAGACGTA | -0.0252 ± 0.019 |
| ATTTGGAG | -0.189 ± 0.015 |
| CGACAGGA | 0.0929 ± 0.046 |
| AAGCTTAG | -0.0696 ± 0.026 |
| ACCGATCG | 0.24 ± 0.025 |
| AGTCATAT | -0.234 ± 0.069 |
| GTCAGCCA | 0.0752 ± 0.093 |
| ACACTACC | 0.2187 ± 0.0013 |
| TACCTCCA | -0.00358 ± 0.099 |
| AGTGCTAA | 0.421 ± 0.012 |

| Sequence | PBM E-score of 8-mer |
| --- | --- |
| GCGCGGTA | -0.109 ± 0.03 |
| AGGGATTG | -0.136 ± 0.047 |
| CAACAAGC | 0.0422 ± 0.028 |
| ATATAGGC | 0.00492 ± 0.055 |
| ACCGAAAA | -0.165 ± 0.011 |
| GGGTGCTA | 0.4326 ± 0.0028 |
| GGGGCTAA | -0.0787 ± 0.028 |
| AACCTTAA | -0.209 ± 0.044 |
| AAAGTCTC | 0.0424 ± 0.053 |
| GCAATTGC | 0.159 ± 0.012 |
| TGATTTAA | -0.164 ± 0.087 |
| CCACGTGA | 0.245 ± 0.023 |
| ACAGCGAG | 0.232 ± 0.014 |
| AGACGGGG | -0.239 ± 0.024 |
| CTGAATAA | -0.221 ± 0.013 |
| TAATTATA | -0.257 ± 0.017 |
| GGCGAAGA | 0.0326 ± 0.058 |
| CCCCTACG | -0.0948 ± 0.0047 |
| CGCACTAC | 0.179 ± 0.017 |
| CCAGCTTC | -0.148 ± 0.011 |
| ACCACTTG | 0.121 ± 0.0065 |
| CAAGGATA | -0.186 ± 0.029 |
| CACGGTAG | -0.104 ± 0.036 |
| GTCGTTAA | 0.0848 ± 0.0083 |
| CCCAAAAC | 0.0141 ± 0.0023 |

| Sequence | PBM E-score of 8-mer |
| --- | --- |
| AGCCCCTC | 0.0711 ± 0.078 |
| CATTATGA | -0.0803 ± 0.013 |
| CACTAGTG | 0.197 ± 0.0089 |
| GACGGATA | -0.101 ± 0.05 |
| ATCGCTTA | 0.0877 ± 0.013 |
| TGCACTAA | 0.135 ± 0.0049 |
| CGGGGGAG | -0.241 ± 0.018 |
| AGCACATC | 0.207 ± 0.05 |
| AGATTCGG | -0.173 ± 0.036 |
| GAGTATGA | 0.0407 ± 0.095 |
| ACTATTGA | -0.138 ± 0.066 |
| TCCGATAA | -0.108 ± 0.093 |
| AGTGGATA | -0.0692 ± 0.054 |
| ACTTGAGC | 0.0696 ± 0.048 |
| GATTTTAC | -0.23 ± 0.046 |
| ACATGAGT | -0.0507 ± 0.016 |
| CCTATATC | -0.195 ± 0.0043 |
| AATTCCTC | -0.193 ± 0.025 |
| GTCGTGGA | 0.0374 ± 0.015 |
| CGAAATAG | -0.0237 ± 0.00068 |
| CTCGAAGC | -0.0159 ± 0.011 |
| ACAAGACC | 0.0576 ± 0.017 |
| AAGTAGAA | 0.0579 ± 0.014 |
| ACCAGGAG | -0.0755 ± 0.044 |
| TCTGCGCA | 0.0499 ± 0.0022 |

| Sequence | PBM E-score of 8-mer |
| --- | --- |
| CTCATAAG | -0.192 ± 0.068 |
| AGAGGTAC | -0.0631 ± 0.0026 |
| CATCCCCC | -0.0831 ± 0.02 |
| CGTCCGAC | 0.000435 ± 0.055 |
| GGAACGAC | -0.00859 ± 0.022 |
| GACGAAGC | -0.0209 ± 0.038 |
| GCCGCGAA | 0.264 ± 0.024 |
| CTAATAGA | -0.176 ± 0.013 |
| ATATAGTA | -0.0423 ± 0.079 |
| CTTCCATC | -0.0699 ± 0.076 |
| GATCTTGC | -0.0442 ± 0.011 |
| CGACCAGA | -0.0136 ± 0.013 |
| ATCAGTTG | 0.0668 ± 0.091 |
| ATCGCACG | 0.34 ± 0.023 |
| GAGCGATC | -0.266 ± 0.02 |
| TCGGCAAA | -0.0411 ± 0.018 |
| AAGCGCGA | 0.375 ± 0.017 |
| GACATAGC | -0.16 ± 0.013 |
| ATCGGGGC | -0.0198 ± 0.045 |
| ACCAAGGA | -0.166 ± 0.087 |
| AATAGACT | -0.175 ± 0.072 |
| ACTCTCCC | 0.106 ± 0.0071 |
| ATAACCCC | -0.142 ± 0.016 |
| CCGTGTAC | -0.147 ± 0.093 |
| CAGTACTA | -0.142 ± 0.045 |

| Sequence | PBM E-score of 8-mer |
| --- | --- |
| CCGAACGG | -0.274 ± 0.031 |
| CTCCACAA | 0.141 ± 0.031 |
| GGGTAGGA | -0.205 ± 0.052 |
| CTAAAGGA | -0.136 ± 0.018 |
| ATTTTTTG | 0.011 ± 0.042 |
| GCCCAAAA | -0.0744 ± 0.087 |
| AGTGGCAA | 0.304 ± 0.039 |
| ATAAGTCG | 0.123 ± 0.013 |
| AACCCTCC | -0.152 ± 0.07 |
| AGGAGACT | -0.2111 ± 0.0016 |
| AACGTTGG | 0.0329 ± 0.034 |
| CACGCTCA | 0.164 ± 0.0079 |
| ATGTGCGA | 0.4691 ± 0.0032 |
| CGTGCGCC | -0.0828 ± 0.047 |
| ATTGGTCC | -0.263 ± 0.023 |
| CACCAAGA | 0.198 ± 0.005 |
| ATGGCGGA | -0.225 ± 0.027 |
| GCGGATAC | -0.264 ± 0.031 |
| GAAATTTC | -0.00541 ± 0.12 |
| AGGACCGC | -0.2203 ± 0.0013 |
| GAGTACTA | -0.414 ± 0.0024 |
| CGACTACA | -0.074 ± 0.092 |
| AGCTATAG | -0.0906 ± 0.024 |
| AGCAAAGA | -0.052 ± 0.038 |
| GGGGGTAC | -0.101 ± 0.025 |

| Sequence | PBM E-score of 8-mer |
| --- | --- |
| AGTTGAAT | -0.113 ± 0.013 |
| AAAGAGCT | -0.0872 ± 0.017 |
| CAGCTCGC | 0.208 ± 0.022 |
| ATGGACTG | -0.165 ± 0.016 |
| CTGAAAGC | -0.197 ± 0.025 |
| TCCACCAA | -0.0779 ± 0.028 |
| AATTTCTC | 0.0054 ± 0.061 |
| CGACAACC | 0.195 ± 0.048 |
| AACCAAGA | -0.283 ± 0.018 |
| AAGGGATA | -0.189 ± 0.0011 |
| GCAAGCGA | -0.0021 ± 0.006 |
| GATTTATA | -0.131 ± 0.023 |
| CTGGCTAC | -0.191 ± 0.018 |
| CGGGCTGC | -0.205 ± 0.06 |
| CACATATG | 0.293 ± 0.02 |
| ACAATCCT | -0.0218 ± 0.045 |
| ATGTGTCA | 0.4653 ± 0.0037 |
| AACCCTGC | 0.072 ± 0.041 |
| CGTAGCTA | -0.0603 ± 0.07 |
| GTACCTAA | -0.248 ± 0.013 |
| ACCCGCCC | -0.0219 ± 0.026 |
| AACTCTGG | -0.0696 ± 0.058 |
| AATAATCC | -0.267 ± 0.086 |
| ACGTCTTG | 0.016 ± 0.0039 |
| TATCCACA | 0.082 ± 0.0092 |

| Sequence | PBM E-score of 8-mer |
| --- | --- |
| CTATGGAC | -0.166 ± 0.017 |
| ATTGCTGG | -0.121 ± 0.086 |
| AGTTTCCA | -0.0589 ± 0.02 |
| GTTCCTCA | -0.0492 ± 0.091 |
| AGCAATAG | 0.0417 ± 0.012 |
| AACATACA | -0.125 ± 0.025 |
| CGGCTTAA | -0.0464 ± 0.01 |
| ACCGTGCG | 0.139 ± 0.038 |
| AGAGGCTA | -0.0399 ± 0.046 |
| GTAGGCAA | 0.0337 ± 0.07 |
| ACGTCGTG | 0.0723 ± 0.029 |
| GATCTACC | -0.169 ± 0.016 |
| CCCCACAG | -0.0866 ± 0.014 |
| GACTCCTA | -0.304 ± 0.027 |
| AGCGTATG | -0.212 ± 0.024 |
| AGCATCGC | 0.00662 ± 0.065 |
| AAACGTTG | -0.22 ± 0.042 |
| CCCGGGTA | -0.077 ± 0.018 |
| CTTAGAAG | -0.0817 ± 0.0036 |
| AACGACTT | 0.169 ± 0.051 |
| CATTCTAC | 0.0187 ± 0.0071 |
| CAGTCATG | -0.121 ± 0.032 |
